Measured values from PMC10117376.
Changes are numbered by the printed parent chain. No constants are given. Whether binding was seen depends on the method and setting. Binding seen in cells or lysates may run through a third protein. Some results given as binding are weak or reduced against the parent protein; the word gives no strength. Tags and fused reporters may be left off the sequences shown. Values belong to the molecule of their own block, whether it stands above or below them.

Sequences of proteins named here, by UniProt entry; tags and fusion partners are left off.
UniProt Q6W2J9: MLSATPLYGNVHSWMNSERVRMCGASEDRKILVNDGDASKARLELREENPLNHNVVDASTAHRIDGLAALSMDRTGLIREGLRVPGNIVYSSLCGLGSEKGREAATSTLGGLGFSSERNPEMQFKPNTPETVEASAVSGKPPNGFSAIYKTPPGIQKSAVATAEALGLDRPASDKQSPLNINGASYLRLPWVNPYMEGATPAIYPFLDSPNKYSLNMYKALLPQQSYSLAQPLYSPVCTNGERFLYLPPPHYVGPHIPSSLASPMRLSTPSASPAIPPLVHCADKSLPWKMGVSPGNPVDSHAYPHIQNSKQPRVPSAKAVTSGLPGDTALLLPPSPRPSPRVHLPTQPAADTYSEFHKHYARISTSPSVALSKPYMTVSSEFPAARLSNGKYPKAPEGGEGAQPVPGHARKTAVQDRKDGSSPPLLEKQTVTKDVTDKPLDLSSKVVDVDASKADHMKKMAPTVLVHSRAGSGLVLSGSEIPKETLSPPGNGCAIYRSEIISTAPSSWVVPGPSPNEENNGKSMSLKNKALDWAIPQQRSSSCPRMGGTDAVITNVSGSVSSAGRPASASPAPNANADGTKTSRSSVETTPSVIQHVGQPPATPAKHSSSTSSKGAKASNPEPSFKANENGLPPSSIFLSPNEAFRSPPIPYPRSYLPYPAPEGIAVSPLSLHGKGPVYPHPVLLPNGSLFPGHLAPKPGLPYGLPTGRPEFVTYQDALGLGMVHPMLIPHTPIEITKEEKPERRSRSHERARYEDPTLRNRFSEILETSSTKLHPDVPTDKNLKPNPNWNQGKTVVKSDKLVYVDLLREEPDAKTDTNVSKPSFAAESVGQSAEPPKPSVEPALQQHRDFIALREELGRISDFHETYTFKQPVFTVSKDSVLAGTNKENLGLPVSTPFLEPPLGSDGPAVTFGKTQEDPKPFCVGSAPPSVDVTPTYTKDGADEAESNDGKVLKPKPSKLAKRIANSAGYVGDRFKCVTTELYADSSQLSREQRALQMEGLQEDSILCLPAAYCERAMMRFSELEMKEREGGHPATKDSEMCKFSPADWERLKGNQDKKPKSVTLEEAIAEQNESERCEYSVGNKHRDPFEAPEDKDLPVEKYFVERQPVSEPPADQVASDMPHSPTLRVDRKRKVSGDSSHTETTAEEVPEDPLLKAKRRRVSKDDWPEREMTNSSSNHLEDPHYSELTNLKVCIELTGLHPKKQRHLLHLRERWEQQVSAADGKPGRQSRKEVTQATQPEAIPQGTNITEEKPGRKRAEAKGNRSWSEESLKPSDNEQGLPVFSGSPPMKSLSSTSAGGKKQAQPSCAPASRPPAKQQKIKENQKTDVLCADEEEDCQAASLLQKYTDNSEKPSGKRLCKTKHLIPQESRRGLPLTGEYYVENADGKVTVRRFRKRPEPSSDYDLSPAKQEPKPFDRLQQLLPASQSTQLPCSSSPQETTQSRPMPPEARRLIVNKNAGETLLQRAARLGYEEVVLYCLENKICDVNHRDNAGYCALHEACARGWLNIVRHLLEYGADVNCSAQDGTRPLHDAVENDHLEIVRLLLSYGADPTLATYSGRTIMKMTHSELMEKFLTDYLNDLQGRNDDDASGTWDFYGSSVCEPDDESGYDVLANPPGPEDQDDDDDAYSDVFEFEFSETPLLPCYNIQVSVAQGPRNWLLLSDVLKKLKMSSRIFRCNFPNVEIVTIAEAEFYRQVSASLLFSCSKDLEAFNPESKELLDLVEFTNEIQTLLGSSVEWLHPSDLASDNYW
UniProt Q8WXI9: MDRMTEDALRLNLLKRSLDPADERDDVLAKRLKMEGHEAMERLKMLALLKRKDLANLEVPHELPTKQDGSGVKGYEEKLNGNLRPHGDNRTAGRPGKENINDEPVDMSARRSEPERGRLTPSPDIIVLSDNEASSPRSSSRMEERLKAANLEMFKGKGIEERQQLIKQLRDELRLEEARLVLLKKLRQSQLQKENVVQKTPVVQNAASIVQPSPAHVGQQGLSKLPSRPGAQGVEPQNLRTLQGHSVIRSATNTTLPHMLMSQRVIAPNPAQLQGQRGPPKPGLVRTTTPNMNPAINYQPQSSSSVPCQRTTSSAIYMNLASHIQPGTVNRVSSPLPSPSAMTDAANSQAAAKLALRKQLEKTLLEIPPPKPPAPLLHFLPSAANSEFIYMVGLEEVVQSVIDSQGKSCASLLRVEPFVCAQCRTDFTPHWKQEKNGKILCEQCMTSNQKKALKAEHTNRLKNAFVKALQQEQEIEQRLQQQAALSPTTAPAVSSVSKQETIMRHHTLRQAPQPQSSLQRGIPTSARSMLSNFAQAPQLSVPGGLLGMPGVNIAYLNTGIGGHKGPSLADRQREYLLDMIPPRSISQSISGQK

How the values were obtained:
Assay in all cases: FRET or BRET; BRET in live HEK293 cells transfected with pairs of N-terminal Rluc and YFP fusions, 96-well plates; EnduRen substrate 48 h after transfection; Rluc-NLS and YFP-NLS as controls
YFP-TBR1 p.Q178E (human) = target: T1, YFP-TBR1 p.Q178E (human) (UniProt Q16650)
T1 sequence: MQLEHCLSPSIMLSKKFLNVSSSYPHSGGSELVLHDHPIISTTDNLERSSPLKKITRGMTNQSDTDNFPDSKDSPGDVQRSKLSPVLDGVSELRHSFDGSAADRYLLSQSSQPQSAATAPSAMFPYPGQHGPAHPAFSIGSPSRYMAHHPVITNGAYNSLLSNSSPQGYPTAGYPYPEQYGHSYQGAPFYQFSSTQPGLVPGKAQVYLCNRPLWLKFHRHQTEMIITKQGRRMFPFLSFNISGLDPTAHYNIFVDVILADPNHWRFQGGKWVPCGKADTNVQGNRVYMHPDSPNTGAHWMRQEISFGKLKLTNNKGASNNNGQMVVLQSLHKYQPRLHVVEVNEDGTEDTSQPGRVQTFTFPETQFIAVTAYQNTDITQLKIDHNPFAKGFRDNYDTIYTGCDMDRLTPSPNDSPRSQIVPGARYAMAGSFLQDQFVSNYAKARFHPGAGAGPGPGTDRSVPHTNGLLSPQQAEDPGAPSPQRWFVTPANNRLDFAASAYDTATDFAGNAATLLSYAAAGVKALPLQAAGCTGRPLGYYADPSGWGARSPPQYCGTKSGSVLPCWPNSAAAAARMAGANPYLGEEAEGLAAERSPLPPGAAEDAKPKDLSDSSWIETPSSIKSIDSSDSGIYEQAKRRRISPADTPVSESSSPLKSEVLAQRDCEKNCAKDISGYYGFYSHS

YFP-TBR1 p.V356M (human) = target: T2, YFP-TBR1 p.V356M (human) (UniProt Q16650)
T2 sequence: T1 sequence with E178Q, V356M

YFP-TBR1 p.W271C (human) = target: T3, YFP-TBR1 p.W271C (human) (UniProt Q16650)
T3 sequence: T1 sequence with E178Q, W271C

YFP-TBR1 p.W271R (human) = target: T4, YFP-TBR1 p.W271R (human) (UniProt Q16650)
T4 sequence: T1 sequence with E178Q, W271R

binding (YFP-TBR1 p.Q178E (human)): binds
binding (YFP-TBR1 p.V356M (human)): binds
binding (YFP-TBR1 p.W271C (human)): binds
binding (YFP-TBR1 p.W271R (human)): binds
Molecule: Rluc-BCOR (from UniProt Q6W2J9 1-1755)

binding (YFP-TBR1 p.Q178E (human)): binds
binding (YFP-TBR1 p.V356M (human)): binds
binding (YFP-TBR1 p.W271C (human)): binds
binding (YFP-TBR1 p.W271R (human)): binds
Molecule: Rluc-GATAD2B (from UniProt Q8WXI9 1-593)

binding (YFP-TBR1 p.Q178E (human)): binds
binding (YFP-TBR1 p.V356M (human)): binds
binding (YFP-TBR1 p.W271C (human)): no binding
B1: Rluc-ADNP (protein, UniProt Q9H2P0 1-1102)
chain: MFQLPVNNLGSLRKARKTVKKILSDIGLEYCKEHIEDFKQFEPNDFYLKNTTWEDVGLWDPSLTKNQDYRTKPFCCSACPFSSKFFSAYKSHFRNVHSEDFENRILLNCPYCTFNADKKTLETHIKIFHAPNASAPSSSLSTFKDKNKNDGLKPKQADSVEQAVYYCKKCTYRDPLYEIVRKHIYREHFQHVAAPYIAKAGEKSLNGAVPLGSNAREESSIHCKRCLFMPKSYEALVQHVIEDHERIGYQVTAMIGHTNVVVPRSKPLMLIAPKPQDKKSMGLPPRIGSLASGNVRSLPSQQMVNRLSIPKPNLNSTGVNMMSSVHLQQNNYGVKSVGQGYSVGQSMRLGLGGNAPVSIPQQSQSVKQLLPSGNGRSYGLGSEQRSQAPARYSLQSANASSLSSGQLKSPSLSQSQASRVLGQSSSKPAAAATGPPPGNTSSTQKWKICTICNELFPENVYSVHFEKEHKAEKVPAVANYIMKIHNFTSKCLYCNRYLPTDTLLNHMLIHGLSCPYCRSTFNDVEKMAAHMRMVHIDEEMGPKTDSTLSFDLTLQQGSHTNIHLLVTTYNLRDAPAESVAYHAQNNPPVPPKPQPKVQEKADIPVKSSPQAAVPYKKDVGKTLCPLCFSILKGPISDALAHHLRERHQVIQTVHPVEKKLTYKCIHCLGVYTSNMTASTITLHLVHCRGVGKTQNGQDKTNAPSRLNQSPSLAPVKRTYEQMEFPLLKKRKLDDDSDSPSFFEEKPEEPVVLALDPKGHEDDSYEARKSFLTKYFNKQPYPTRREIEKLAASLWLWKSDIASHFSNKRKKCVRDCEKYKPGVLLGFNMKELNKVKHEMDFDAEWLFENHDEKDSRVNASKTADKKLNLGKEDDSSSDSFENLEEESNESGSPFDPVFEVEPKISNDNPEEHVLKVIPEDASESEEKLDQKEDGSKYETIHLTEEPTKLMHNASDSEVDQDDVVEWKDGASPSESGPGSQQVSDFEDNTCEMKPGTWSDESSQSEDARSSKPAAKKKATMQGDREQLKWKNSSYGKVEGFWSKDQSQWKNASENDERLSNPQIEWQNSTIDSEDGEQFDNMTDGVAEPMHGSLAGVKLSSQQA

binding (YFP-TBR1 p.Q178E (human)): binds
binding (YFP-TBR1 p.V356M (human)): binds
binding (YFP-TBR1 p.W271C (human)): binds
binding (YFP-TBR1 p.W271R (human)): binds
B2: Rluc-NR2F1 (protein, UniProt P10589 1-423)
chain: MAMVVSSWRDPQDDVAGGNPGGPNPAAQAARGGGGGAGEQQQQAGSGAPHTPQTPGQPGAPATPGTAGDKGQGPPGSGQSQQHIECVVCGDKSSGKHYGQFTCEGCKSFFKRSVRRNLTYTCRANRNCPIDQHHRNQCQYCRLKKCLKVGMRREAVQRGRMPPTQPNPGQYALTNGDPLNGHCYLSGYISLLLRAEPYPTSRYGSQCMQPNNIMGIENICELAARLLFSAVEWARNIPFFPDLQITDQVSLLRLTWSELFVLNAAQCSMPLHVAPLLAAAGLHASPMSADRVVAFMDHIRIFQEQVEKLKALHVDSAEYSCLKAIVLFTSDACGLSDAAHIESLQEKSQCALEEYVRSQYPNQPSRFGKLLLRLPSLRTVSSSVIEQLFFVRLVGKTPIETLIRDMLLSGSSFNWPYMSIQCS

binding (YFP-TBR1 p.Q178E (human)): binds
binding (YFP-TBR1 p.V356M (human)): binds
binding (YFP-TBR1 p.W271C (human)): binds
binding (YFP-TBR1 p.W271R (human)): binds
B3: Rluc-NR2F2 (protein, UniProt P24468 1-414)
chain: MAMVVSTWRDPQDEVPGSQGSQASQAPPVPGPPPGAPHTPQTPGQGGPASTPAQTAAGGQGGPGGPGSDKQQQQQHIECVVCGDKSSGKHYGQFTCEGCKSFFKRSVRRNLSYTCRANRNCPIDQHHRNQCQYCRLKKCLKVGMRREAVQRGRMPPTQPTHGQFALTNGDPLNCHSYLSGYISLLLRAEPYPTSRFGSQCMQPNNIMGIENICELAARMLFSAVEWARNIPFFPDLQITDQVALLRLTWSELFVLNAAQCSMPLHVAPLLAAAGLHASPMSADRVVAFMDHIRIFQEQVEKLKALHVDSAEYSCLKAIVLFTSDACGLSDVAHVESLQEKSQCALEEYVRSQYPNQPTRFGKLLLRLPSLRTVSSSVIEQLFFVRLVGKTPIETLIRDMLLSGSSFNWPYMAIQ
